The other results are listed elsewhere or left out.
What follows are compounds tested on T1, C. trachomatis L2/434/Bu expressing GFP (CTL2-GFP). Conditions: total inclusion area; 28.5 h, 10 µM; inhibitor.
T1 construct: L2/434/Bu GFP intracellular growth in HeLa cells
Parameters: species or system HeLa; C. trachomatis total inclusion area by high-content imaging, normalised to DMSO
Outline: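 Bulk GFP and resorufin signals were read first. Wells were then fixed, stained with Hoechst and imaged to detect GFP inclusions and host nuclei. MICs followed the previously described calculation.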

Structure (SMILES)	% of control remaining
Cc1ccc(N(CC(=O)N/N=C/C(C)C)S(=O)(=O)c2ccccc2)c(C)c1 [CBK262397]	103.077
Cn1c(=O)n(CC(=O)NC2(C)C3CCC(C3)C2(C)C)c2cccnc21 (centres unmarked) [CBK283330]	109.13
CCNC(CO)c1ccccc1 (centres unmarked) [CBK061785]	19.1466
Cc1cc(C(F)(F)F)nc2sc(C(=O)c3ccc4c(c3)OCO4)c(N)c12 [CBK074388]	52.0329
O=C(O)CCC(=O)Nc1ccc(Sc2ccc([N+](=O)[O-])cc2)cc1 [CBK020438]	95.1271
O=C(O)c1ccc(S(=O)(=O)NCC2CCCO2)cc1 (centres unmarked) [CBK262364]	105.2
Cc1ccc(C)c(C2CCCN2C(=O)c2cccn(CC(=O)NC3CCCCC3)c2=O)c1 (centres unmarked) [CBK286010]	114.21
Nc1ccn([C@H]2C[C@@H](O)[C@@H](CO)O2)c(=S)n1 [CBK201187]	115.667
CCCNC(=O)CN(C)CC(=O)Nc1sc2c(c1C#N)CCC(C)C2 (centres unmarked) [CBK305845]	41.9175
O=C(Nc1ccc2c(c1)OCCO2)c1cnccn1 [CBK220830]	92.5481
CS(=O)(=O)N(CC(=O)Nc1ccccc1F)c1ccc(I)cc1 [CBK265265]	98.0965
O=C(O)C1Cc2nc[nH]c2C(c2ccc(F)cc2)N1 (centres unmarked) [CBK286970]	77.3572
CCCN1CCN(C(=O)c2ccc(=O)n(C)c2)C(Cc2ccccc2-c2ccccc2)C1=O (centres unmarked) [CBK285836]	101.328
COc1ccc(C(=O)Cn2nc3nnc(-c4ccccc4)c(-c4ccccc4)n3c2=O)cc1 [CBK286181]	123.837
COC(=O)c1sc(NC(=O)c2cccnc2)c(C#N)c1C [CBK265007]	91.2972
CC(=O)Nc1cccc(NC(=O)N2CCN(C3CCN(C)CC3)CC2)c1 [CBK155901]	78.2728
O=C(Nc1ccc(Cl)cc1)C(Cc1ccccc1)N1C(=O)c2cc(Cl)c(Cl)cc2C1=O (centres unmarked) [CBK264172]	98.0643
Cc1cc(C)c(NC(=O)C2CCCCN2C23CC4CC(CC(C4)C2)C3)c(C)c1 (centres unmarked) [CBK261559C]	93.4001
Cc1nc2ccccc2c(=O)n1Cc1cccnc1 [CBK288092]	87.5758
NC(=S)N1N=C(c2ccccc2)CC1c1ccccc1 (centres unmarked) [CBK288435]	51.261
O=C(CCC1CCCCC1)Nc1c[nH]c(=O)[nH]c1=O [CBK287867]	61.5951

Structure (SMILES)	% of control remaining
O=C(O)C1CSC(c2ccc(-c3cccc(Cl)c3)o2)N1 (centres unmarked) [CBK286997]	87.3741
Oc1cccc(OCCOc2nccc(C(F)(F)F)n2)c1 [CBK115903]	94.1191
CCCc1nn(CC(=O)N2CCCC2)c(=O)c2cc3ccsc3n12 [CBK284145]	85.385
COc1ccc(CCC(C)NC2CCCc3c2[nH]c2ccc([N+](=O)[O-])cc32)cc1 (centres unmarked) [CBK262876]	16.7511
O=C(NC(C(=O)N/N=C/c1coc2ccccc2c1=O)c1n[nH]c(=O)c2ccccc12)c1ccccc1 (centres unmarked) [CBK262847]	88.2569
OC1(Cn2ccc3ncccc32)CCN(Cc2cccs2)CC1 [CBK284783]	77.9519
O=C(O)/C=C/c1ccccc1OCC(=O)NC1CCCCC1 [CBK286900]	57.014
Cc1oc(C(=O)N2CCc3sccc3C2c2ccccc2)cc1CN1CCOCC1 (centres unmarked) [CBK285566]	88.2733
COc1cccc(Cn2c(=O)n(C)c3ncccc32)c1 [CBK282391]	82.6049
COc1ccc(-c2cn(-c3cccc(NC(C)=O)c3)nn2)cc1 [CBK113008]	92.8323
COc1cccc(C2(C(=O)N3CCc4nc[nH]c(=O)c4C3)CC2)c1 [CBK304488]	62.819
O=C(c1cscn1)N1CCCc2ccccc21 [CBK200348]	67.4277
O=C(Nc1ccc(-c2nnc(-c3ccco3)o2)cc1)C(c1ccccc1)c1ccccc1 [CBK263452]	111.687
O=C1CCC(=O)N1CCOc1nccnc1N1CCN(Cc2ccc([N+](=O)[O-])cc2)CC1 [CBK084294]	91.9347
COC(=O)c1cc(C#N)c(=O)n(CC(O)COc2ccccc2)c1 (centres unmarked) [CBK304991]	5.422
O=C(NCCn1nc(-c2cccs2)ccc1=O)c1ccco1 [CBK283838]	81.3875
COc1ccc(CNC(=O)CSc2cnn[nH]2)cc1 [CBK269881]	62.7998
CC1SC2(C(=O)Nc3ccccc32)N(c2ccc(F)cc2)C1=O (centres unmarked) [CBK093463]	104.929
COc1ccc(Nc2ccc(-c3ccsc3)cn2)c(C)c1 [CBK036855]	74.2719
CN(Cc1ccc2c(c1)OCCO2)C(=O)CSc1n[nH]c(=O)n1Cc1ccccc1 [CBK297876]	77.1405

Reference: publication PMC12040169 (PLOS Biology, 2025)
